{"source": "PubChem BioAssay AID504339", "about": "(National Center for Advancing Translational Sciences (NCATS), 2011)", "note": "The whole screen tested about 390,000 compounds, of which about 17,000 (4.4%) were called active. The shares of active, inactive and inconclusive entries below differ from those in the screen. Calls follow the shape of the dose curve; as a rule, active = well fitted inhibition curve with a large enough effect; inconclusive = small, poorly fitted or top-dose-only effect; inactive = no such curve, though single readings can be large or run the other way. Where the call is inconclusive, the potency comes from a doubtful curve fit. Potency is read from the fitted curve at half-maximal effect; tags tell the direction and shape of the fitted curve.", "data": [{"molecular_target": "Lysine-specific demethylase 4A (Homo sapiens) (UniProt O75164)", "sequence (O75164 whole entry, looked up, the tested form may be a part)": "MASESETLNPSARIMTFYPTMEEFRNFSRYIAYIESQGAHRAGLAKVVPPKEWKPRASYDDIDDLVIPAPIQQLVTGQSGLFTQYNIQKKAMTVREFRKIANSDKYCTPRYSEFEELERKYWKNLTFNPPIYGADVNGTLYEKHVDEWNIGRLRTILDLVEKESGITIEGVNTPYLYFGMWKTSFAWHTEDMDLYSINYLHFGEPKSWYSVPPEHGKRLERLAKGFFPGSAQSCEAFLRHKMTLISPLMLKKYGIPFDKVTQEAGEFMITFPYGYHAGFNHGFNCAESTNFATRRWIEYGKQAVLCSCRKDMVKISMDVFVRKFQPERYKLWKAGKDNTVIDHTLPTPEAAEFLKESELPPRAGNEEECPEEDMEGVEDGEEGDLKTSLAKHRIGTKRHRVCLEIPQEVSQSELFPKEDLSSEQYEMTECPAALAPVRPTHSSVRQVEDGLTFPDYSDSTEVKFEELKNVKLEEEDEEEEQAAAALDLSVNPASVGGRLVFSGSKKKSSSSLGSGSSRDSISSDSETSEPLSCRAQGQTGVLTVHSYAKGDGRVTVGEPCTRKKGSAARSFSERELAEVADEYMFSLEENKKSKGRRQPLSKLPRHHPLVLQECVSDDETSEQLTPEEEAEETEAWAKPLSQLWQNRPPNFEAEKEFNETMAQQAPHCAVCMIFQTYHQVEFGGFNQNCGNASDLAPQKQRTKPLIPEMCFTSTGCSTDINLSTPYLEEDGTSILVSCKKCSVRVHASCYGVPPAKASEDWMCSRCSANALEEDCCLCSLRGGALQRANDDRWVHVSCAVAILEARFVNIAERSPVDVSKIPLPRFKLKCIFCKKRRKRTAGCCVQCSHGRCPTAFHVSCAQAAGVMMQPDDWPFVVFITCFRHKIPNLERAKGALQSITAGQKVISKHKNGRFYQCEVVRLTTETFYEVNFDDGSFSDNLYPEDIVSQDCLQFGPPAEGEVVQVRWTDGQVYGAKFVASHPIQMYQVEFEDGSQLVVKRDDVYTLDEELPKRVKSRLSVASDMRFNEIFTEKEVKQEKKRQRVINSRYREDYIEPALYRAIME", "test": "qHTS Assay for Inhibitors of JMJD2A-Tudor Domain; also: nearly all actives have a fitted effect of over 50% in size", "conditions": "AlphaScreen JMJD2A-Tudor / H3K4me3 peptide binding; series mostly up to 114 µM", "values": [{"smiles": "COc1ccccc1CNC(=O)COC(=O)c1c(C)nn(-c2ccccc2)c1Cl", "Potency": "inactive"}, {"smiles": "Cc1ccccc1-c1nc(CN2CCC(C(=O)NCc3cccnc3)CC2)c(C)o1", "Potency": "inconclusive: 89.1 µM [inhibitor, partial curve, poor fit]"}, {"smiles": "O=C(c1ccc([N+](=O)[O-])cc1)N1CCN(C(=O)c2cccs2)CC1", "Potency": "inactive"}, {"smiles": "O=C(Nc1ccccc1)c1ccc2ccccc2n1", "Potency": "inactive"}, {"smiles": "Cc1ccc(-n2c(C)cc(/C=N/NC(=O)CN(c3ccc(C)cc3C)S(C)(=O)=O)c2C)cc1", "Potency": "inconclusive: 79.4 µM [inhibitor, partial curve]"}, {"smiles": "CC1(C)Cc2c(ccc3ccccc23)/C(=C/C#N)N1", "Potency": "inconclusive: 44.7 µM [inhibitor, partial curve]"}, {"smiles": "O=C(Cc1ccc(-n2cccc2)cc1)N1CCN(c2ccccc2F)CC1", "Potency": "active: 35.5 µM"}, {"smiles": "COc1ccc(-c2cc(OC)c3c(C)oc(C)c3c(=O)c2)cc1OC", "Potency": "inconclusive: 44.7 µM [inhibitor, partial curve]"}, {"smiles": "O=C(CCc1nc(-c2ccccc2F)no1)Nc1cccnc1", "Potency": "inactive"}, {"smiles": "O=C(c1cccc(F)c1)N1CCN(c2ccc([N+](=O)[O-])c3cccnc23)CC1", "Potency": "inconclusive: 56.2 µM [inhibitor, partial curve]"}, {"smiles": "COc1cccc2sc(NN)nc12", "Potency": "inconclusive: 63.1 µM [inhibitor, partial curve, poor fit]"}, {"smiles": "Cc1ccc(C)c(N=Cc2ccc(-c3ccc([N+](=O)[O-])cc3)o2)c1", "Potency": "active: 56.2 µM"}, {"smiles": "COc1cc(C(c2sc3nc(C)nn3c2O)N2CCC3(CC2)OCCO3)cc(OC)c1OC", "note": "(stereo unspecified)", "Potency": "inconclusive: 4.47 µM [inhibitor, single point]"}, {"smiles": "Fc1ccc(OCCOCCN2CCCC2)cc1", "Potency": "active: 6.31 µM"}, {"smiles": "COc1cc(OC)c(OC)cc1CN1CCN(c2ccc(F)cc2)CC1", "Potency": "active: 44.7 µM"}, {"smiles": "COc1ccccc1NC(=O)c1cc(S(=O)(=O)N2CCOCC2)ccc1Cl", "Potency": "inactive"}, {"smiles": "Cc1[nH]c2ccc(F)cc2c1CCN(Cc1ccncc1)C(=S)Nc1cccc(F)c1", "Potency": "inconclusive: 79.4 µM [inhibitor, partial curve]"}, {"smiles": "COc1ccc(/C=C2\\SC(=S)N(CC(=O)OCC(=O)Nc3cc(Cl)cc(Cl)c3)C2=O)cc1", "Potency": "inconclusive: 10 µM [inhibitor, full curve]"}, {"smiles": "CCCC[n+]1c(C)sc2cc(OC)ccc21", "Potency": "active: 15.8 µM"}, {"smiles": "O=C(O)/C(=C\\c1cccc(F)c1)c1ccc(S(=O)(=O)N2CCCCC2)s1", "Potency": "inconclusive: 44.7 µM [inhibitor, partial curve]"}, {"smiles": "COc1ccc(Cl)cc1NC(=O)NCCc1c(C)nn(C)c1C", "Potency": "inactive"}, {"smiles": "COc1cccc(C(=O)OCCCN(C)C)c1", "Potency": "inactive"}, {"smiles": "Cc1ccc(CN2C(=O)N/C(=C\\c3ccc(-c4ccc(C(=O)O)cc4C)o3)C2=O)cc1", "Potency": "inconclusive: 89.1 µM [inhibitor, single point]"}, {"smiles": "COc1ccc(C2c3c(ncn(CCCO)c3=N)Oc3ccc4ccccc4c32)cc1", "note": "(stereo unspecified)", "Potency": "inconclusive: 10 µM [inhibitor, full curve, poor fit]"}, {"smiles": "OC(CNCCc1ccccc1)COc1ccc(OCC(O)CNCCc2ccccc2)cc1", "note": "(stereo unspecified)", "Potency": "inconclusive: 56.2 µM [inhibitor, partial curve]"}, {"smiles": "N#CC1=C(SCC(=O)Nc2ccccc2)NC(=O)CC1c1ccco1", "note": "(stereo unspecified)", "Potency": "inconclusive: 56.2 µM [inhibitor, partial curve]"}, {"smiles": "COc1cc(-c2cccs2)cc(=O)c2c(C)oc(C)c12", "Potency": "inconclusive: 44.7 µM [inhibitor, partial curve]"}, {"smiles": "CCOC(=O)C1CCN(C(=O)c2ccc(CNS(=O)(=O)c3ccc(OC)cc3)cc2)CC1", "Potency": "inactive"}, {"smiles": "CCC(=O)Nc1ccc2c(c1)nc1n2CCN(C2CCCCC2)C1", "Potency": "inactive"}, {"smiles": "CCOC(=O)c1c(NC(=O)CSc2ncccn2)sc2c1CCN(Cc1ccccc1)C2", "Potency": "active: 22.4 µM"}, {"smiles": "O=C(CCS(=O)(=O)c1ccc(Br)cc1)NCc1cccs1", "Potency": "active: 35.5 µM"}, {"smiles": "Cc1cc(C(=O)COC(=O)c2cc(Cl)c(O)c(Cl)c2)c(C)n1C", "Potency": "active: 50.1 µM"}, {"smiles": "COc1ccc(N/N=C(\\C=N\\O)C(=O)c2ccc(OC)cc2)cc1", "Potency": "inconclusive: 17.8 µM [inhibitor, partial curve, poor fit]"}, {"smiles": "CCN(CC)c1ccc(CN2CCCCCC2)cc1", "Potency": "inconclusive: 44.7 µM [inhibitor, partial curve]"}, {"smiles": "Oc1ccc(/C=N/N2CCN(C3c4ccccc4-c4ccccc43)CC2)c(O)c1", "Potency": "active: 39.8 µM"}, {"smiles": "Cc1cc(C(F)F)n2nc(C(=O)Nc3c(F)cc(F)cc3Br)nc2n1", "Potency": "inconclusive: 31.6 µM [inhibitor, single point]"}, {"smiles": "COc1cccc(C(=O)NCCS(=O)(=O)NCC2CCCO2)c1", "note": "(stereo unspecified)", "Potency": "inconclusive: 100 µM [inhibitor, partial curve]"}, {"smiles": "Oc1oc(-c2ccco2)nc1C=Nc1ccccc1", "Potency": "inconclusive: 89.1 µM [inhibitor, partial curve]"}, {"smiles": "CCCCC(=O)NC(c1ccc(N(CC)CC)cc1)c1ccc2cccnc2c1O", "note": "(stereo unspecified)", "Potency": "inconclusive: 14.1 µM [inhibitor, full curve]"}, {"smiles": "C=Cn1ccnc1P(=S)(c1ccc2c(c1)c1ccccc1n2CC)c1nccn1C=C", "Potency": "inconclusive: 39.8 µM [inhibitor, partial curve]"}, {"smiles": "COc1ccc(C2c3[nH]c4ccccc4c3CCN2C(=O)Cc2nonc2C)c(F)c1", "note": "(stereo unspecified)", "Potency": "inconclusive: 39.8 µM [inhibitor, partial curve]"}, {"smiles": "CCC1Nc2ncnc(N3CCN(c4ccccc4)CC3)c2N(Cc2ccc(OC)cc2)C1=O", "note": "(stereo unspecified)", "Potency": "inconclusive: 44.7 µM [inhibitor, full curve]"}, {"smiles": "CCCCCn1c(=S)[nH]c2cc(C(=O)N3CCCC3)ccc2c1=O", "Potency": "inconclusive: 31.6 µM [inhibitor, single point]"}, {"smiles": "COc1cc(/C=C/C(=O)c2ccccc2O)cc(OC)c1OC", "Potency": "active: 50.1 µM"}, {"smiles": "COc1ccc(C=NNC(=S)NN=Cc2ccc(OC)c(OC)c2)cc1OC", "Potency": "inconclusive: 25.1 µM [inhibitor, partial curve]"}, {"smiles": "COC(=O)c1ccc(-c2ccco2)n1Cc1cccc(C)c1", "Potency": "inconclusive: 56.2 µM [inhibitor, partial curve]"}, {"smiles": "C=C(C)CC1Nc2ccccc2NC1CC(=C)C", "note": "(stereo unspecified)", "Potency": "active: 79.4 µM"}, {"smiles": "Oc1c(/C=N/c2ccccn2)sc2ccccc12", "Potency": "inconclusive: 56.2 µM [inhibitor, partial curve]"}, {"smiles": "C#CCOCCOCCOCCNc1nc(N2CCN(C(=O)[C@H](CCCN=C(N)N)n3cc(C(N)[C@@H](C)CC)nn3)CC2)nc(N2CCN(C(=O)[C@H](CO)n3cc([C@@H](N)C(C)C)nn3)CC2)n1", "note": "(stereo partly specified)", "Potency": "inconclusive: 79.4 µM [inhibitor, partial curve]"}, {"smiles": "O=C(COC(=O)Cc1ccc(Cl)cc1)Nc1ccc(OC(F)F)cc1", "Potency": "inconclusive: 89.1 µM [inhibitor, single point]"}, {"smiles": "C/C(=N\\NC(=O)c1nnn(-c2nonc2N)c1CN(C)c1ccccc1)c1ccccn1", "Potency": "active: 22.4 µM"}, {"smiles": "CC1CCCCC1NC(=O)CCS(=O)(=O)c1cc2c(cc1Cl)NC(=O)CO2", "note": "(stereo unspecified)", "Potency": "inactive"}, {"smiles": "NC(=O)c1ccc(N=Cc2c(O)ccc3ccccc23)cc1", "Potency": "inconclusive: 28.2 µM [inhibitor, partial curve]"}, {"smiles": "COc1ccc(N2CCN(c3nc(Nc4ccc(C)c(F)c4)nc(N4CCCC4)n3)CC2)cc1", "Potency": "inconclusive: 14.1 µM [inhibitor, full curve]"}, {"smiles": "CN=C1NN=C(c2cc(C)n(-c3ccc(Cl)cc3)c2C)CS1", "Potency": "inconclusive: 79.4 µM [inhibitor, single point]"}, {"smiles": "O=C(N/N=C/c1cc(Br)ccc1O)C(c1ccncc1)N1CCOCC1", "note": "(stereo unspecified)", "Potency": "active: 79.4 µM"}, {"smiles": "Cc1ccc(CN(C(=O)c2ccc([N+](=O)[O-])cc2)C2CCS(=O)(=O)C2)o1", "note": "(stereo unspecified)", "Potency": "inconclusive: 14.1 µM [inhibitor, full curve]"}, {"smiles": "CCOc1ccc(-c2n[nH]c(=S)o2)cc1", "Potency": "inconclusive: 15.8 µM [inhibitor, full curve, poor fit]"}, {"smiles": "O=C(NCC(c1ccco1)N1CCc2ccccc21)c1cccc(F)c1", "note": "(stereo unspecified)", "Potency": "inconclusive: 39.8 µM [inhibitor, full curve]"}, {"smiles": "O=C1CN2Cc3c(ccc(Cl)c3Cl)N=C2N1", "Potency": "inconclusive: 79.4 µM [inhibitor, partial curve]"}, {"smiles": "COc1ccc(NC(=O)CN(C)C(=O)c2oc3ccccc3c2C)cc1", "Potency": "inactive"}, {"smiles": "COc1cccc(-c2nc(NC(C)C)c3ccccc3n2)c1O", "Potency": "active: 50.1 µM"}, {"smiles": "N#CCC(=O)N/N=C/c1cc(-c2ccccc2)n(-c2ccc(Cl)cc2)c1-c1ccccc1", "Potency": "inconclusive: 39.8 µM [inhibitor, partial curve]"}, {"smiles": "CCOc1cccc(C(=O)Nc2ccc3ccccc3c2)c1", "Potency": "inactive"}, {"smiles": "CN(C)CCN(C(=O)c1ccc(S(=O)(=O)N(C)CC2CCCO2)cc1)c1nc2cc3c(cc2s1)OCO3", "note": "(stereo unspecified)", "Potency": "inconclusive: 79.4 µM [inhibitor, partial curve]"}, {"smiles": "CC1=NN(C(N)=S)C(=O)C1N=Nc1c(Cl)cc([N+](=O)[O-])cc1Cl", "note": "(stereo unspecified)", "Potency": "active: 28.2 µM"}, {"smiles": "COc1ccc2c(c1)nc(SCC(=O)c1ccc(Br)s1)n2C", "Potency": "active: 56.2 µM"}, {"smiles": "Cc1cc(C(=O)C(C)OC(=O)c2ccc(NC(=O)CC#N)cc2)c(C)n1-c1ccc(OC(F)F)cc1", "note": "(stereo unspecified)", "Potency": "inconclusive: 50.1 µM [inhibitor, partial curve]"}, {"smiles": "NC1=NC2(CCCC2)N=C(Nc2ccccc2)N1", "Potency": "active: 35.5 µM"}, {"smiles": "O=[N+]([O-])/C(C(Cl)=C(Cl)Cl)=C(\\Sc1ccccc1)N1CCCCC1", "Potency": "inconclusive: 39.8 µM [inhibitor, full curve]"}, {"smiles": "CC(=O)Nc1ccc(NC(=S)NC(=O)C2CCCC2)cc1", "Potency": "inactive"}]}]}
